The supplement of paper PMC10126150
Sequences with one replicate were seen in a single cluster, so their values are uncertain.

Tested on: ATP
Experiment: switch fluorescence ratio, 500 uM ATP over buffer (Cy3 cluster intensity, sum of 5 cycles each) (fold (ratio)); higher = stronger signal-on switching upon ATP binding; sequences stand for … in TCGTCGGCAGCGTCAGATGTGTATAAGAGACAGTTTTTTTTTTTTTTTTTTTTTTTTT…TC
Conditions: aptamer strand: ATP DNA aptamer (quencher-CACCTGGGGGAGTATTGCGGAGGAAGG + anchor), 100 nM annealed; ATP concentration: 500 uM; one replicate
How it was run: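 Cy3-labelled switching-strand clusters on a modified Illumina MiSeq flow-cell were annealed to 100 nM quencher-labelled ATP aptamer, imaged in selection buffer, then imaged after 15 min with 500 uM ATP at 22 °C. Five buffer/ATP cycles ran, with NaOH stripping and re-annealing between them. The fluorescence ratio is summed target-cycle over summed buffer-cycle Cy3 intensity per cluster, averaged per switch-domain sequence. Clusters outside 100-1000 RFU were excluded.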
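Note: ATP exposure 15 min at 22 °C before imaging.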

Row | Sequence | switch fluorescence ratio
1 | CATTAAAGTT | 0.991
2 | CATTAATGTT | 0.97
3 | CATTAGGTG | 1.26
4 | CATTATGGCA | 0.98
5 | CATTATTCGA | 0.971
6 | CATTCAAGGA | 0.982
7 | CATTCAGGCA | 0.991
8 | CATTCAGTCT | 1.03
9 | CATTCCGATG | 1.64
10 | CATTCCTACG | 4.54
11 | CATTCGACTT | 1.07
12 | CATTCGTCGT | 0.985
13 | CATTGAATC | 0.952
14 | CATTGATTGA | 0.961
15 | CATTGCATGT | 0.99
16 | CATTGCTTGT | 0.986
17 | CATTGGATAC | 1.26
18 | CATTGGATCG | 1
19 | CATTGTACCG | 1.03
20 | CATTGTGGT | 0.985
21 | CATTGTTGGA | 0.982
22 | CATTTAGAAG | 0.97
23 | CATTTCACAG | 0.987
24 | CATTTGAGAC | 1.02
25 | CATTTGGAG | 1.02
26 | CATTTTGGAT | 1.07

Row | Sequence | switch fluorescence ratio
27 | CCAAAAACAC | 1.09
28 | CCAAAACAAA | 0.957
29 | CCAAAACACA | 1.06
30 | CCAAACCTGT | 1.13
31 | CCAAACGAAG | 0.995
32 | CCAAACGGAG | 1.02
33 | CCAAAGCCGG | 1.02
34 | CCAAAGGCTG | 0.936
35 | CCAAAGTGGG | 1.02
36 | CCAAATCCCA | 0.976
37 | CCAAATTCTG | 0.936
38 | CCAACCAGAG | 1.09
39 | CCAACCGTCT | 1.1
40 | CCAAGAATTT | 1.04
41 | CCAAGACTGC | 1.22
42 | CCAAGAGCAG | 1.46
43 | CCAAGAGGTG | 1.88
44 | CCAAGCTTAC | 4.55
45 | CCAAGGATCA | 1.04
46 | CCAAGGCGGT | 1.34
47 | CCAAGTACGC | 1.51
48 | CCAAGTAGGG | 1.06
49 | CCAAGTGAG | 0.983
50 | CCAAGTTCTT | 0.992
51 | CCAAGTTTGG | 1.01
52 | CCAATTCGGT | 1.05

Row | Sequence | switch fluorescence ratio
53 | CCAATTGT | 1.01
54 | CCACACTGGA | 1.04
55 | CCACAGACTA | 1.19
56 | CCACCAACAA | 1.82
57 | CCACCCAACA | 1.37
58 | CCACCCTGTG | 1.25
59 | CCACCTCAAA | 1.56
60 | CCACCTGTCT | 1.04
61 | CCACGAGACA | 1.23
62 | CCACGCTCCA | 1.37
63 | CCACGGGCTT | 1.06
64 | CCACGGGTTC | 1.1
65 | CCACGTTCCA | 1.02
66 | CCACTAATTT | 0.96
67 | CCACTCCCCA | 1.05
68 | CCACTGTCGA | 1.21
69 | CCACTTGGGG | 1.05
70 | CCAGAAGACT | 0.963
71 | CCAGAGTTGG | 1
72 | CCAGATAGAT | 1.04
73 | CCAGCACCTG | 1.04
74 | CCAGCCGGTC | 0.997
75 | CCAGCGAGGA | 1.08
76 | CCAGCGTGGG | 1.07
77 | CCAGCTGTCA | 0.999
78 | CCAGCTTCTT | 1.09

Row | Sequence | switch fluorescence ratio
79 | CCAGGACAAG | 1.05
80 | CCAGGAGGCA | 1.07
81 | CCAGGAGTGA | 1.09
82 | CCAGGATCTT | 1.02
83 | CCAGGCCTTT | 0.998
84 | CCAGGGAAG | 1.04
85 | CCAGGGGGCC | 1.08
86 | CCAGGTGGTA | 2.97
87 | CCAGTAACAG | 0.979
88 | CCAGTGAGGT | 0.974
89 | CCAGTGCAGG | 1.16
90 | CCAGTGCTCC | 1.96
91 | CCAGTTGCTT | 1.05
92 | CCAGTTTCG | 1.02
93 | CCATAATGCG | 1.04
94 | CCATACCCAT | 1.05
95 | CCATACTGCG | 1.07
96 | CCATATAAAA | 0.998
97 | CCATATCTGT | 1.01
98 | CCATCAGCGG | 1.35
99 | CCATCCGAGC | 2.18
100 | CCATCCGATA | 3.23
101 | CCATCGCTGG | 1.29
